# Test results reported in the supplement of paper PMC12632987.
# The full ranking holds about 4,500 sequences; the median of “median log2 fold change of GCK-ALFA target abundance (FLAG IP / Myc IP barcode read proportion)” is about 0.078, and the lowest 2% start at about -0.6. Some of the results follow.
# B1: GBRAP_157_3953 (protein)
# chain: EVLYRTFVVTPEDTLEEVRARAHAIAAEIKAAGVPAVLVIVVSKEDEELAESVADEIEAILGYETGQDVEVIRKILPASASREEAEAEAERLLEEARAAR
# B2: GBRAP_160_4112 (protein)
# chain: NEELLKLYKDGAEDLKETIELIKDLSNEEAGVLALVTLGEILIDFSEHDENFEELEELAEKQMEKIRETAKTDPSKLKEVSLEALEEMRKALEEKAKELE
# B3: GBRAP_160_4038 (protein)
# chain: NEKLEKLAKFAEEVFKEAEELIKGTTVEEAAVIVDVATGEIIMEAVELGIDNDELEDFIDEIGDEAVAYLLAHPDLTEEEIQALVKEAKEKILKKIKEAS
# B4: GBRAP_78_6686 (protein)
# chain: KVEELLDKALEHLNKAAKILAKMNTEESLDILGVVIDAAETVWEAEEGEADLEELEEALKKLEEALKEVKKIDSEEAKKAAEELEKAIKALKEAIKLLKE
# B5: GBRAP_150_3893 (protein)
# chain: MLEELLTIADTNADILEGMIESGEFNLNVLKTLAKVTEEEIKEAPEEIAKELKKAAEALKKAIKLIEAGAAPEEIKKELTKAAEAYKKAAELLEKKIKEE
# B6: GBRAP_11_2707 (protein)
# chain: KKEKLKEIAKLAAEAAALTEQLLKEGVDNKELQAKLTAKIKELTELVKKYADESLKKLAEIAKELWEKALADPENKEQYLKELLATLRVLEGQALLEIEE
# B7: GBRAP_52_6077 (protein)
# chain: MEARIEATADAIYEAIAAGDKAKALALLAAAIKEFSVEEITRLLELTARRVASLGDEAHELFVEVLDEGYDLLLAAGISEDDALAIVGAAEAALARAVAA
# B8: GBRAP_125_3052 (protein)
# chain: GLEEVIEALAALARLMGYSEEEVEELARLAREHGVKGALIALLLAEGEEEAAELAEKLSEEAVKEVLLEFLKWLKEHPDITKEEALEKLLELLKKALEKE
# B9: GBRAP_160_4193 (protein)
# chain: SEEVEKLLKEIDEIAEEAIEMIEGQTHEERLVIVEMAFGEILMLLHESPVVSDETVDKVDEIADEVVATLKANPDLTEEEIKALLREAVEKIKEIIKEDA
# B10: GBRAP_9_7122 (protein)
# chain: MEEMIEKMAEVVKDMIEDISLAVPSFTEEEKEEWLARVEELKEEALKDKSLTPEEIAERFKKLVEEIKEEVKKKVSPELAKIVDAISYTALEEIDEIVEE
# B11: GBRAP_26_5486 (protein)
# chain: GSREILDKLEEEVREILKDEPEEVRAAVVAEAINALIEFEEVVEKNINDEEKIEKAKKEALKEVDEFLKELGVPEDKREKVVKALEKALEEVEKEIKEKA
# B12: GBRAP_160_4827 (protein)
# chain: KASEEELFKLVDEERAEAIELIKGQTAEERAAIVAVEFGRFILELSENPEVSDELEEEVDAIARATVDTILANPDLTDAEVTALIEAAAAEIKEVIKKHL
# B13: GBRAP_95_7065 (protein)
# chain: SEDREIAEDLIDTAEDLVEIGAYEQAKRAAKAALEVLKEIGETGELALRAAEVLVEVAKATGDEEAAKAAKEALKAIKKAGGDEEKIEKLEKELEEAKKK
# B14: GBRAP_160_4360 (protein)
# chain: SEELKKLAEEIRKLREEFEEEAKDLSPEEVRILALGVLAEVGALIFHNEAVSDEVEDEIMEIIRKAEEEIRKNKDASPEEIVKITKEAFDKIIELVEKEA
# B15: GBRAP_160_4605 (protein)
# chain: MEEVEELMKEIRELIEEAVKMIEGESPEERLVIIKVTMGEILLLLDESPIVSEEIEEFADELADEVIETVEANPDLSVEEIRELLEEFLEKIEKKLKEEH
# B16: GBRAP_80_6801 (protein)
# chain: AEAELAAELARIAELDPELAERVREIIERARRMGVPTAALAELARAVAELLEVDPELARERVEELEEELRELEEEGDSAGAEAAVRVAAGEMLLEVEELE
# B17: GBRAP_160_4288 (protein)
# chain: SEKAEKLIKEIEEIAEEAIKMMVGQTREERVTIVRVAGGEVAMELIENEEISDETVDKVLAIWDEVAETIAANPDLTDEEIRELIEKAVEEAKKLVKEEA
# B18: GBRAP_35_5605 (protein)
# chain: ESEKEITEMLVAYIEDLTLAVPDAPVETLAAMVNSAIKSAEELVKEEKNNLEALKKLKEALEKLLKALEKHHGDVPEMQEQIAKVKELIEELKKKIKEIE
# B19: GBRAP_52_6374 (protein)
# chain: SVEEVAKLLKEALELIIEGGEEEEIKKLAKEILKYSDEEILKAAELVAKEIKKLSKEEAEKYLEAAFELADILIEVGLDELVASNIEAEIGKAAYEVEKK
# Biological target: GABARAP, O95166
# Test: median log2 fold change of GCK-ALFA target abundance (FLAG IP / Myc IP barcode read proportion) (log2 ratio); each designed protein is fused to an ALFA-tag nanobody in HEK293 cells to bring the named protein to FLAG-tagged glucokinase (GCK); Myc marks an untargeted standard; higher = target protein stabilised (more abundant)
# Conditions: target protein: 3xFLAG-MCP-GCK-ALFA reporter; HEK293 landing pad (RPLP)
# Summary of the method: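 An ALFA-nanobody-fused binder library was recombined into HEK293 landing-pad cells and induced with 2 μg mL^−1 doxycycline. Cells were transfected with a plasmid expressing a FLAG-tagged target and a Myc-tagged standard. After 48 h, lysates underwent anti-FLAG and anti-Myc immunoprecipitation, and circular RNA barcodes were reverse transcribed, amplified and sequenced. Target abundance is the per-binder median log2 ratio of FLAG to Myc barcode read proportions. Barcodes needed ≥10^−7 proportion in both replicates, binders ≥3 barcodes per replicate, and a 10^−6 pseudocount was added; the two replicates were pooled.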
# Sequence of GABARAP, O95166 (O95166 whole entry, the tested form may be a part): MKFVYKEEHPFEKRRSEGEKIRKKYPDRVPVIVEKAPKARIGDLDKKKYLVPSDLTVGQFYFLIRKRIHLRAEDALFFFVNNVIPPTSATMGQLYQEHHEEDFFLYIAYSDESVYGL
row,Binder,median log2 fold change
1,B1,0.303
2,B2,-0.0772
3,B3,-0.621
4,B4,-0.0389
5,B5,0.197
6,B6,0.13
7,B7,-0.302
8,B8,0.0501
9,B9,0.0895
10,B10,0.067
11,B11,0.333
12,B12,-0.0977
13,B13,0.0926
14,B14,0.336
15,B15,-0.173
16,B16,-0.2
17,B17,-0.352
18,B18,0.149
19,B19,0.096
